Measured values published in patent US9993566B2, “SEZ6 modulators and methods of use” (AbbVie Stemcentrx LLC, priority 2013, dated 2018).

What was measured:
[1] = target: T1, human recombinant SEZ6-His (Homo sapiens, UniProt Q53EL9); test: Affinity by bio-layer interferometry (ForteBio RED) or surface plasmon resonance (Biacore 2000); type: binding; conditions: surface plasmon resonance
T1 construct: The cDNA fragment encoding the ECD of SEZ6 was amplified from the hSEZ6 cDNA clone; IgK signal peptide (N, cleaved yes); made in house; host or cells: HEK-293T and/or CHO-S
Protocol: Various methods were used to analyze the binding and immunochemical characteristics of selected SEZ6 modulators generated as set forth above. Specifically, a number of the antibody modulators were characterized as to affinity, binning, and cross reactivity with regard to human, cynomolgus, rat and mouse SEZ6 antigen along with SEZ6L and SEZ6L2 proteins by art-recognized methods including flow cytometry. Affinities and kinetic constants kon and koff of the selected modulators were measured using bio-layer interferometry analysis on a ForteBio RED (ForteBio, Inc.) or surface plasmon resonance using a Biacore 2000 each according to the manufacturer's instructions.
To verify the cross reactivity data above for rat SEZ6 and to determine the affinity and kinetic constants kon and koff of the selected effectors, either bio-layer interferometry analysis on a ForteBio RED (ForteBio, Inc.) or surface plasmon resonance on a Biacore 2000 (GE Healthcare) were conducted. Affinities were determined to both human recombinant SEZ6-His and rat recombinant SEZ6-His generated in Example 5.
Binding characteristics of the following humanized constructs from Example 8, hSC17.16, hSC17.17, hSC17.24, hSC17.28, hSC17.34 and hSC17.46, were analyzed in order to determine whether the CDR grafting process had appreciably altered their binding characteristics. […]

[2] = target: T2, SEZ6 ECD (Homo sapiens, UniProt Q53EL9); test: Fine epitope mapping (phage display peptide library or yeast-displayed SEZ6 ECD mutants); type: binding; conditions: epitope conformational (discontinuous) or linear
T2 construct: SEZ6 extracellular domain (amino acids 1-904); expressed in transfected cells; host or cells: yeast (surface display, Cochran et al. protocol)
Protocol: Epitopes were classified either as conformational (i.e. discontinuous) or linear. Yeast displaying the SEZ6 ECD construct was heat treated for 30 minutes at 80° C. in order to denature the antigen, washed twice in ice-cold PBSA and then subjected to the same staining protocol and flow cytometry analysis as described above. Antibodies that bound to both the denatured and native yeast were classified as binding to a linear epitope, whereas antibodies that bound native yeast but not denatured yeast were classified as conformationally specific.
Fine epitope mapping was further performed on selected antibodies to determine the specific amino acids to which they bound. Antibodies that bound to a linear epitope were mapped using the Ph.D.-12 phage display peptide library kit (New England Biolabs E8110S). The antibody selected for epitope mapping was coated onto a Nunc MaxiSorp tube (Nunc) at 50 μg/mL in 3 mL 0.1 M sodium bicarbonate solution, pH 8 and incubated overnight. The tube was blocked with 3% BSA solution in bicarbonate solution. Then, 10^11 input phage in PBS+0.1% Tween-20 was allowed to bind, followed by ten consecutive washes with 0.1% Tween-20 to wash away non-binding phage. […] Phage binding was detected using horseradish peroxidase conjugated anti-M13 antibody (GE Healthcare), and the 1-Step Turbo TMB ELISA solution (Pierce). […]

Row | Molecule | binding affinity compared with corresponding murine or chimeric antibody [1] | Discontinuous [2]
1 | hSC17.24: humanized (CDR grafted) anti-SEZ6 antibody derived from SC17.24 (antibody, V domains shown, Humanized hSC17.24 VH; Humanized hSC17.24 VL) VH: EVQLVQSGAEVKKPGATVKISCKVSGYTFTDHTIHWVRQAPGKGLEWIGYIYPRDGSTKYNEEFKGRVTITADTSTDTAYMELSSLRSEDTAVYYCARSYSNYFDYWGQGTTVTVSS VL: DIVMTQSPDSLAVSLGERATINCKSSQSLLYSSNQKSYLAWYQQKPGQPPKLLIYWASTRESGVPDRFSGSGSGTDFTLTISSLQAEDVAVYYCKQSYNLRTFGGGTKVEIK | equivalent or better than the corresponding murine antibodies | 
2 | SC17.200: murine anti-SEZ6 antibody (antibody, V domains shown, Murine SC17.200 VH; Murine SC17.200 VL, murine anti-SEZ6 antibody) VH: QVQLQQSGPELVKPGASVKISCKASGYAFSSSWINWVKQRPGQGLEWIGRIYPGEGDTNYSGNFEGKATLTADKSSTTAYMQLSSLTSVDSAVYFCTRGLVMDYWGQGTALTVSS VL: DIVLTQSPASLAVSLGQRATIFCRASQSVDYNGISYMHWFQQKPGQPPKLLIYAASNVQSGIPARFSGSGSGTDFTLNIHPVEEEDAATFYCQQSIEDPPTFGGGTKLEIK |  | Yes
